# From PubChem BioAssay AID1768 (National Center for Advancing Translational Sciences (NCATS), 2009)
# Among all 270,000 compounds or so, about 620 (0.23%) were called active. Inconclusive results, whose numbers are uncertain, are shown with a selection of clear calls. Calls come from the whole dose curve; as a rule, active = well fitted inhibition curve with a large enough effect in the polarisation, with a control signal flat (not every such curve was filed as active); inconclusive = small, poorly fitted or top-dose-only effect, or effect the other way, or a change in a side signal; inactive = no such curve, though single readings can be large or run the other way; the % refers to the polarisation. A potency beside an inconclusive call is a rough fit, not a confirmed value. “Side channel” marks fits to a control or component signal instead of the main read-out.
# Biological target: Menin (Homo sapiens) (UniProt O00255)
# Chain of UniProt O00255 (O00255 whole entry, looked up): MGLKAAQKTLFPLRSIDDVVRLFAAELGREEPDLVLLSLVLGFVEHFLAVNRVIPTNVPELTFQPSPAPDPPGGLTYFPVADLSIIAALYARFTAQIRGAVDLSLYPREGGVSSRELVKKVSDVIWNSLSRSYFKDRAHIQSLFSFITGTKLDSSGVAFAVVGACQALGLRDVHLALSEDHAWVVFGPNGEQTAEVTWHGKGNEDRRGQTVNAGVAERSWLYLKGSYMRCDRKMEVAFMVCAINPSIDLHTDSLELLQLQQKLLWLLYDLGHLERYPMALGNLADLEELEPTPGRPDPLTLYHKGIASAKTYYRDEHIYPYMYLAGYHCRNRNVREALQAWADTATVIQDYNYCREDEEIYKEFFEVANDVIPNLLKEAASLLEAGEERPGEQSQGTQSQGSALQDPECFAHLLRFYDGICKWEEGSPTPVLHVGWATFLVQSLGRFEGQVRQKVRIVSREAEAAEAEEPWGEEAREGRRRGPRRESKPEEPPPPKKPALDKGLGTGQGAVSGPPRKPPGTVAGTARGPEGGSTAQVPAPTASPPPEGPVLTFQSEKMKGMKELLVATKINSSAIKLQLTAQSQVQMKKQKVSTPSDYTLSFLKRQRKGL
# Assay: qHTS Assay for Inhibitors Targeting the Menin-MLL Interaction in MLL Related Leukemias: Competition With Texas Red Labeled MLL-derived Mutant Peptide; for FP activity change, negative = inhibition: % of control where 0% means no effect
# Details: fluorescence polarization; FP activity change, negative = inhibition: at 61.6 µM (top of the series)
# Potency is the fitted concentration of half-maximal effect; tags give direction and shape of the fitted curve or compound fluorescence and quenching.
Compound,"FP activity change, negative = inhibition",Potency
COc1ccc(-c2nc3c(c4c2C[C@H](c2ccccc2)OC4)CN(S(=O)(=O)c2ccc4c(c2)OCCN4C)CC3)c(C)c1,inactive: -8.11% [at 11.7 µM],
Cc1ccc(NCC(=O)Nc2cccc(S(=O)(=O)N(C)C)c2)c(Cl)c1,,"inconclusive: 14.1 µM [quencher, side channel, partial curve]"
Cc1ccc(-n2nc3c(=O)n(CCCC(=O)N4CCC(C)CC4)nc(C)c3c2C)cc1,,"inconclusive: 28.2 µM [fluorescent, side channel, partial curve]"
Cc1ccc(C(=O)OCN2C(=O)c3ccccc3C2=O)c(O)c1,,"inconclusive: 39.8 µM [fluorescent, partial curve]"
CCc1oc(C(=O)O)cc1CN(CC)CC,inactive: -21.6%,
CCc1ccc(N(CC(=O)NC2CCCC2)C(=O)CCC(=O)Nc2cc(C)on2)cc1,,"inconclusive: 25.1 µM [inhibitor, single point]"
Cc1ccc(CN2CCCC(CO)(Cc3ccccc3C)C2)s1 (stereo unspecified),,"inconclusive: 14.1 µM [fluorescent, side channel, partial curve]"
COc1ccc(C(CNCC(O)COc2c(C)ccc(C)c2C)N(C)C)cc1 (stereo unspecified),,"inconclusive: 39.8 µM [fluorescent, side channel, partial curve, poor fit]"
CC(C)COCC(CN(Cc1ccccc1)c1ccccc1)N1CCCC1 (stereo unspecified),,"inconclusive: 10 µM [fluorescent, side channel, partial curve]"
N=C1/C(=C\c2ccc(SCc3ccco3)o2)C(=O)N=C2SC=NN12,,"inconclusive: 7.08 µM [fluorescent, side channel, partial curve]"
Cc1ccc(/C=c2\sc3nc(-c4ccccc4Br)nn3c2=O)o1,,"inconclusive: 28.2 µM [quencher, side channel, partial curve]"
C=NC(C(=O)NC1C(=O)N2C1SC(C)(C)C2C(=O)O)c1ccccc1 (stereo unspecified),inactive: 11.8%,
Cc1ccccc1NC(=O)C1CCCN(S(=O)(=O)c2ccc(-n3cnnn3)cc2)C1 (stereo unspecified),,"inconclusive: 22.4 µM [quencher, side channel, partial curve]"
CCOc1ccc(-c2nnc(-c3ccncc3)o2)cc1,,"inconclusive: 39.8 µM [inhibitor, single point]"
CSc1ccccc1NC(=O)Nc1cccc(Cl)c1Cl,,"inconclusive: 22.4 µM [quencher, side channel, single point]"
COc1ccccc1NC(=O)N1CCc2[nH]c3ccc(F)cc3c2C1,,"inconclusive: 15.8 µM [quencher, side channel, partial curve]"
